Results as given in publication PMC12136788.
This is one part of the list.

B1: chr20:32656575:32657945:-|three_prime_utr|ENSG00000285382|control|control|control (ssRNA)
RNA: GGGAGUUCUACAGUCCGACGAUCAACCUCCACCUCCCAGGUUCAAGGGAUUCUUCUGCCUCAGCCUCCUGAGUAACUGGGAUUAGGGGUGCCCACCACCAUGUCUGGCUAAUUUUUAUAUUUUUAGUAGAGACGGGGUUUUGCCAACAGAGGAUUGAGCAUCA
B2: chr7:20410151:20410448:+|3pUTR|ENSG00000105855|msi1|total|mutant (ssRNA)
RNA: GGGAGUUCUACAGUCCGACGAUCACCCGUGUCGUUGCCGCACUUUACUGUAAUAUAUAACUUAUUCCGAUCAGCACCGAAUGCCGAUCCUCUGAAGAGCACUGAUUACACUUUACAGGUACCUGUUAUCCCUACGCUUCCCAGCAACAGAGGAUUGAGCAUCA
B3: chr3:186789481:186789582:+|3pUTR|ENSG00000156976|msi1_unk|total|mutant (ssRNA)
RNA: GGGAGUUCUACAGUCCGACGAUCUUGGGGUGGGUAUAAAAGAUGGGGUCUGUAAAAUCUUUCUUUCUCCGAAAUUUAUUUCCCCGUUCUGCCGAAAUGGUUGUAUCCGAUGUUCUCUAUCAUUUAAUAAUAUACUUGUGGACUCAACAGAGGAUUGAGCAUCA
B4: chr17:35976492:35977731:-|three_prime_utr|ENSG00000275152|control|control|control (ssRNA)
RNA: GGGAGUUCUACAGUCCGACGAUCAUUAUUACAGCAAAGAAUGGUCAACCCCAGCUCCUCAACUCCCAGUGAUGACCAGGCUUUAGUGGAAGCCCUUGUUUACAGAAGAGAGGGGUAAACCUAUGAAAACAGGGGAAGCCUUAUCAACAGAGGAUUGAGCAUCA
B5: chr12:39553410:39553513:-|3pUTR|ENSG00000173208|unk|total|mutant (ssRNA)
RNA: GGGAGUUCUACAGUCCGACGAUCUAAGAUUCAAACUUUGAGUGACAUUCCGUCCAUUUAUGGUUGAUAUCCGGUUUAACCGCCCGAAUUCAAAUUGAUUAUUGCCCGUGGCCAACUAAACCUGUACAAAACCGCUGACAGUUUCAACAGAGGAUUGAGCAUCA
B6: ENSG00000115380:stop:overlap|stop_codon|ENSG00000115380|stop_codon|NA|stop_codon (ssRNA)
RNA: GGGAGUUCUACAGUCCGACGAUCGGACCUUCCGCACAAGCUCUGUGUUAAGAUUGACAAUAAUAGUGGGGCCAUUUUCAUUUUAGUCUUUUCUAAGAGUCAACCACAGGCAUUUAAGUCAGCCAAAGAAUAUUGUUACCUUAACAACAGAGGAUUGAGCAUCA
B7: chr3:50258797:50258898:+|3pUTR|ENSG00000114353|msi1|total|mutant (ssRNA)
RNA: GGGAGUUCUACAGUCCGACGAUCGCACAAGAAGCGUGAGACGCCACCAUUCCUGGAAACCACAGUCCACCUGCUCAUUCUCGCCGCUUUUUAAAAAAAUGAAAGUAAAGGAAAAAAAAAAAACUGCAAAUCCCGAAAACUUUUCAACAGAGGAUUGAGCAUCA
B8: chr6:110609977:110614534:-|three_prime_utr|ENSG00000155111|control|control|control (ssRNA)
RNA: GGGAGUUCUACAGUCCGACGAUCAUUUAAAACUCAUACACAUGGGAGGAAAACCUUAUAUACUGAGCAUUGUGCAGGACUGAUAGCUCUUCUUUAUUGACUUAAAGAAGAUUCUUGUGAAGUUUCCCCAGCACCCCUUCCCUGCAACAGAGGAUUGAGCAUCA
B9: ENSG00000013293:stop:overlap|stop_codon|ENSG00000013293|stop_codon|NA|stop_codon (ssRNA)
RNA: GGGAGUUCUACAGUCCGACGAUCAACACAAACAGAACUCAGAGGCCCUGAUUGCAAAUGAUGAGUUAGAUUACUCUCCAGAGUAGGAGAAACACACAAGUGGGUAGAAAUGGUGAUGACUGAUUUUCAGUAACUUAACCUGUGCAACAGAGGAUUGAGCAUCA
B10: ENSG00000198589:be:win_1301|CDS|ENSG00000198589|bound_else_gene|NA|bound_elsewhere_windowed (ssRNA)
RNA: GGGAGUUCUACAGUCCGACGAUCCAUCUCCUAAGGACAACCCUUCAAUUUUUGUUCAUUCACCACAUGCACUCAUGCUCCAGGAUGUAAAGGCAGUUUUAACACAUUCCAUCCAAAGUGCAAUGCAUUCAAUUGGAGGAGUACCAACAGAGGAUUGAGCAUCA
B11: chr15:65454262:65454415:-|CDS|ENSG00000074603|control|control|control (ssRNA)
RNA: GGGAGUUCUACAGUCCGACGAUCAAUUGACGAUCAGGUGGAAGGACUCCAAUAUCUAGCUUCUCGAUAUGAUUUCAUUGACUUAGAUCGUGUGGGCAUCCACGGCUGGUCCUAUGGAGGAUACCUCUCCCUGAUGGCAUUAAUCAACAGAGGAUUGAGCAUCA
B12: ENSG00000198589:be:win_2501|CDS|ENSG00000198589|bound_else_gene|NA|bound_elsewhere_windowed (ssRNA)
RNA: GGGAGUUCUACAGUCCGACGAUCAGAGCAUGGAGGUUCGCAGAGCCUUUCUUUCUGACAUGAUUAAACUUUUUAAUAACAGUAGAGAAAACAGGAGGAGCUUGCUACAAUGCUCUGUGUGGCAAGAAUGGAUGCUUUCUCUCUCAACAGAGGAUUGAGCAUCA
B13: chr2:182778012:182778113:+|3pUTR|ENSG00000077232|msi1|FALSE|unique (ssRNA)
RNA: GGGAGUUCUACAGUCCGACGAUCUAAAGAUAUAUGUGUUCAUGUAUUUUCUGAAAUUGCUUUCAUAGAAAUUUUCCCACUGAUAGUUGAUUUUUGAGGCAUCUAAUAUUUACAUAUUUGCCUUCUGAACUUUGUUUUGACCUGCAACAGAGGAUUGAGCAUCA
B14: chr12:64421256:64421371:+|CDS|ENSG00000184575|unk|FALSE|unique (ssRNA)
RNA: GGGAGUUCUACAGUCCGACGAUCGUUGACUUCCUGGCCAGAUUUUCUAAGUUGGUAAAUGGAAUGGGACAGUCAUUGAUAGUUAGUUGGAGUAAAUUAAUUAAGAAUGGGGAUAUUAAGAAUGCUCAAGAGGCACUACAAGCUCAACAGAGGAUUGAGCAUCA
B15: chr11:11963431:11963477:-|3pUTR|ENSG00000050165|msi1_unk|total|mutant (ssRNA)
RNA: GGGAGUUCUACAGUCCGACGAUCUUGACACUGUCCCUCUUUGGCAGUUGCAUCCGUAACUUUGAAAGGUAUAUGACUGAGCGCCGCAUACAGGUUAACCUGCAGAAACAGUACUCCGGUAAUUGCCGGGCGAGGAUUAUAAAUCAACAGAGGAUUGAGCAUCA
B16: ENSG00000124766:be:win_3101|3pUTR|ENSG00000124766|bound_else_gene|NA|bound_elsewhere_windowed (ssRNA)
RNA: GGGAGUUCUACAGUCCGACGAUCACACUUUUAAAAAACAAAAAAAGACAAGAGAGAUGAAAACGUUUGAUUAUUUUCUCAGUGUAUUUUUGUAAAAAAUAUAUAAAGGGGGUGUUAAUCGGUGUAAAUCGCUGUUUGGAUUUCCAACAGAGGAUUGAGCAUCA
B17: chr19:6729913:6730384:-|three_prime_utr|ENSG00000125734|control|control|control (ssRNA)
RNA: GGGAGUUCUACAGUCCGACGAUCUACGCCGUUGUCUUGCCUUUUUGGGGGUUGGGGUCUACACGGAGGUUGUGUUUACAAUGUAGAAACCUGUUUUCGCUGUGUGUGGCGGGGGCGCGGGCACAGGGUCCGUGUCUUUGUAUACAACAGAGGAUUGAGCAUCA
B18: chr1:225496770:225496921:-|3pUTR|ENSG00000154380|msi1|FALSE|unique (ssRNA)
RNA: GGGAGUUCUACAGUCCGACGAUCUUUUUUAAUUGCAGACAGUAAUGCAUGUCACACUAAUAUGUAGUGGCCUUUUCAAGGCCUAGUCCCAGGGAAAACAUUUUGUAGAGUAUAGGGGAGUGGGAGGAAGGGGAGGAAUAAUUUCAACAGAGGAUUGAGCAUCA
B19: chrX:135759845:135760351:-|three_prime_utr|ENSG00000269096|control|control|control (ssRNA)
RNA: GGGAGUUCUACAGUCCGACGAUCGUUUUCUACAAUGGAGCAGGAUAUUGCUGAAGUCUCCUGGCAUAUGUUACCGAAUCAAAUAGCCUUCCAGAGGCUAAGAAAUUUCUGUUAGUAAAAGAUGUUCUUUUUCCCAAAGCAUUUCAACAGAGGAUUGAGCAUCA
B20: chr8:6757792:6757893:+|3pUTR|ENSG00000155189|msi1|total|mutant (ssRNA)
RNA: GGGAGUUCUACAGUCCGACGAUCAUUUAUUACAACUUGACAGCUCCAAGCUCUUAUUACUAAAGUAUUCCGUAUCUUGCAGCCCGUUAAUAUUUCAUCUUUUGCUUAUUUCUACAAGUCAGUGAAAUAAAUUGUAUUCCGGAACAACAGAGGAUUGAGCAUCA
B21: chr7:16784014:16784129:+|3pUTR|ENSG00000106537|msi1_unk|total|mutant (ssRNA)
RNA: GGGAGUUCUACAGUCCGACGAUCGAUAAUUUACUUGCCGUCUUUUAUGAUUACACCAAUGUAUUCCCGAAACCGUUAUGUCUCCGGAAAUUGUGGUUUAAUUUUUGACUUUUACAGGUAAGUGCAAAGGAGAAGUGGUUUCAUCAACAGAGGAUUGAGCAUCA
B22: chr8:78602526:78602623:+|3pUTR|ENSG00000171033|msi1_unk|total|mutant (ssRNA)
RNA: GGGAGUUCUACAGUCCGACGAUCUUGUAUGUUGAUGAGUUGAUUAAGUCUAACAGAUUCAUCAAGACUCCAUUGCUUUAUUACCGAGACAUUUGAAAAUAUCCAUUAAUGUGAAUAUCACCUGAAUUCAGUCUGUUUGGUGUCCAACAGAGGAUUGAGCAUCA

Biological target: MSI1 full-length (mouse, UniProt Q61474 1-362)
Experiment: nsRBNS (natural sequence RNA bind-n-seq); RBNS binding buffer (assumed for nsRBNS): 25 mM Tris pH 7.5, 150 mM KCl, 3 mM MgCl2, 0.01% Triton X-100, 500 ug/ml BSA, 20 U/ml SUPERase-In, 4 C; UNK is unkempt and MSI1 is Musashi-1; names of the RNAs are library labels; protein concentration not given here; high values mean tight binding

Chain of UniProt Q61474 (Q61474 whole entry): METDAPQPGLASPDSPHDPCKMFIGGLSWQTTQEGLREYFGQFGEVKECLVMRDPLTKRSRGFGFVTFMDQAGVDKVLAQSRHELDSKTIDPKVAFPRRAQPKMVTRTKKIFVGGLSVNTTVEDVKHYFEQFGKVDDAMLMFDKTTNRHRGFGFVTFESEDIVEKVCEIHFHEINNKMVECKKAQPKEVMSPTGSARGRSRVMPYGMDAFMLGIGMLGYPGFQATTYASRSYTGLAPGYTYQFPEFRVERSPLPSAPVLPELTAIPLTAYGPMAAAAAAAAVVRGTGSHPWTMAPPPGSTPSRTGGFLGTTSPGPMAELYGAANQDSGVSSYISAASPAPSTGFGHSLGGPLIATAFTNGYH

| Binder | binding signal [enrichment R] |
| --- | --- |
| B1 | 0.869 |
| B2 | 0.529 |
| B3 | 0.837 |
| B4 | 0.785 |
| B5 | 0.185 |
| B6 | 0.911 |
| B7 | 0.538 |
| B8 | 0.218 |
| B9 | 18.5 |
| B10 | 0.284 |
| B11 | 0.725 |
| B12 | 0.315 |
| B13 | 0.605 |
| B14 | 1.28 |
| B15 | 0.352 |
| B16 | 0.328 |
| B17 | 0.535 |
| B18 | 11.3 |
| B19 | 0.57 |
| B20 | 1.85 |
| B21 | 0.465 |
| B22 | 0.436 |
